This passage reports relative growth recovery results from the supplement of paper PMC12340641.

Whole data set: some 1,000 compounds, median “relative growth recovery (pomalidomide 10 uM = 100%, DMSO = 0%)” near -1.6, cut for the highest 2% near 21. This is one part of the list.

For the test, the system named is HEK293FT dCK*-IKZF1. Kind of test: relative growth recovery (pomalidomide 10 uM = 100%, DMSO = 0%); higher = more growth rescue (IKZF1 fusion degradation). The settings on record: compound concentration: 5 uM; AraC concentration: 0.3 uM; overnight pretreatment + 4 days AraC. The protocol: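 Growth recovery screen of the molecular-glue-like (Specs) library. HEK293FT cells expressing a dCK*-IKZF1 fusion (primary) or dCK* alone (counter) were pretreated overnight with compound at 5 uM, then given 0.3 uM AraC for 4 days. Hoechst nuclei were counted by imaging. Primary: normalised to pomalidomide (100%) and DMSO (0%), mean of 2 replicates. Counter: normalised to no-AraC (100%) and AraC+DMSO (0%), single replicate.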
Take `COc1cc(NS(=O)(=O)c2ccc(Nc3nc(-c4c(C)nc5cc(C)ccn45)cs3)cc2)nc(OC)n1`: the relative growth recovery is -7.5%.
With `CS(=O)(=O)Nc1ccc(S(=O)(=O)Nc2ncccn2)cc1`, the relative growth recovery was -4.6%.
`Cc1cc(C)nc(NS(=O)(=O)c2ccc(NC(=O)CCCN3C(=O)c4ccccc4C3=O)cc2)n1`: the relative growth recovery is 0.95%.
Regarding `Cc1cc(C)c2[nH]c3nc(SCC(=O)Nc4ccc(C)c(Cl)c4)nnc3c2c1`, the relative growth recovery is -10.4%.
For `Cc1ccccc1N1C(=O)c2ccc(Oc3cccc(N)c3)cc2C1=O`, the relative growth recovery is -5%.
On to `Cc1ccc(OCC(=O)Nc2ccc(S(=O)(=O)Nc3nc(C)cc(C)n3)cc2)cc1`, for which the relative growth recovery was -1.25%.
As to `Cc1cc(C)nc(NS(=O)(=O)c2ccc(-n3cccc3)cc2)n1`, the relative growth recovery is -1.34%.
As to `Cc1cnc(Nc2cccc(C3CN(C(=O)Cn4c(C(C)C)nc5ccccc54)CCO3)n2)s1` (configuration not stated), the relative growth recovery is -5.78%.
On to `CCCCCOC(=O)c1ccc(N2C(=O)c3ccc(Oc4ccc(N)cc4)cc3C2=O)cc1`, for which the relative growth recovery was 1.57%.
On to `COc1cc(NS(=O)(=O)c2ccc(NC(=O)c3ccccc3C(=O)O)cc2)nc(OC)n1`, for which the relative growth recovery was -4.23%.
With `CC(=O)N1CCC(c2csc(Nc3ccc(F)cn3)n2)CC1`, the relative growth recovery was -1.78%.
As to `Cc1nn(C)c(C)c1/C=C/C(=O)N1CCC(c2cc3ccccc3c(Nc3nccs3)n2)CC1`, the relative growth recovery is 51.1%.
Regarding `Cc1cnc(Nc2cccc(C3CCN(C(=O)c4cccc5cccnc45)CC3)n2)s1`, the relative growth recovery was -2%.
As for `CC(=O)Oc1cccc(N2C(=O)c3ccc(Oc4ccc(N)cc4)cc3C2=O)c1`, the relative growth recovery is -2.92%.
For `CNC(=O)[C@@H]1CCCC[C@@H]1C(=O)N1CCC(c2cccc(Nc3ncc(C)s3)n2)CC1`, the relative growth recovery was -16.2%.
In the case of `Cc1cnc(NC(=O)CN2CCC(c3cccc(Nc4nc(C)c(C)s4)n3)CC2)s1`, the relative growth recovery was found to be 30.3%.
In the case of `COC(=O)CCC(=O)Nc1ccc(S(=O)(=O)Nc2nc(C)cc(C)n2)cc1`, the relative growth recovery was determined as 2.03%.
As to `CC(=O)Nc1ccc(Oc2ccc3c(c2)C(=O)N(c2ccccc2C)C3=O)cc1`, the relative growth recovery worked out at 0.17%.
As for `Cc1ccnc(NS(=O)(=O)c2ccc([N+](=O)[O-])cc2)c1`, the relative growth recovery is -5.97%.
The same measure for `Cc1cc(C)c(C(=O)Nc2ccc(S(=O)(=O)Nc3ccccn3)cc2)c(C)c1`: -2.16%; for `Cc1ccnc(NS(=O)(=O)c2ccc(N3C(=O)c4ccc(C(=O)O)cc4C3=O)cc2)n1`: 1.42%; for `Cc1ccnc(NS(=O)(=O)c2ccc(NC(=O)CC34CC5CC(CC(C5)C3)C4)cc2)n1`: 4.75%.
As for `CN[C@@H]1CCC[C@@H](n2cnc3c(N)nc(N)nc32)[C@@H]1O`, the figure is -1.49%; as for `Nc1cccc(Oc2ccc3c(c2)C(=O)N(CCO)C3=O)c1`, 1.1%.
For `Cc1ccnc(NS(=O)(=O)c2ccc(N3C(=O)C4C5C=CC(C5)C4C3=O)cc2)n1` (configuration not stated), the relative growth recovery is -1.3%.
Turning to `O=C1c2ccc(Oc3ccc(NC(=O)C(F)(F)F)cc3)cc2C(=O)N1c1ccc(O)cc1`, the relative growth recovery is -4.51%.
For `Cc1cc(NS(=O)(=O)c2ccc(NC(=O)COc3ccc(C)c(C)c3)cc2)nc(C)n1`, the relative growth recovery was -14.2%.
In the case of `Cc1cc(C)nc(NS(=O)(=O)c2ccc(NC(=O)C3CC(=O)N(c4ccccc4)C3)cc2)n1` (configuration not stated), the relative growth recovery is -4.03%.
Consider `Cc1cc(C)c(C(=O)Nc2ccc(S(=O)(=O)Nc3ncccn3)cc2)c(C)c1`, for which the relative growth recovery was -2.61%.
Regarding `COc1ccc(CN(C(=O)CSc2nnc3c(n2)[nH]c2ccc(OC)cc23)c2ccc(F)cc2)cc1`, the relative growth recovery was determined as 13.3%.
In the case of `Cc1cnc(Nc2cccc(C3CN(C(=O)C(C)(C)C)CCO3)n2)s1` (configuration not stated), the relative growth recovery is -4.22%.
On to `Cc1cnc(Nc2cccc(C3(CO)CCN(C(=O)C4CCCCC4)CC3)n2)s1`, for which the relative growth recovery was -11.4%.
The same measure for `Cc1cccc(C(=O)Nc2ccc(S(=O)(=O)Nc3nc(C)cc(C)n3)cc2)c1`: 4.85%; for `Cc1cc(C)nc(NS(=O)(=O)c2ccc(NS(C)(=O)=O)cc2)n1`: -2.53%; for `CC(=O)N1CCC(CCc2ccnc(Nc3nccs3)c2)CC1`: 5.28%.
As to `Cc1cc(C)nc(NS(=O)(=O)c2ccc(NC(=O)CSc3nc4c(cc3C#N)CCCC4)cc2)n1`, the relative growth recovery was -2.04%.
Consider `Cc1ccc(Oc2ccc3c(c2)C(=O)N(c2ccc(C(N)=O)cc2)C3=O)cc1C`, for which the relative growth recovery is 0.78%.
As for `Cc1cnc(Nc2cccc(C3CCN(C(=O)c4cccnc4)CC3)n2)s1`, the figure is -18.6%; as for `Cc1cc(C)nc(NS(=O)(=O)c2ccc(NC(=O)NC3CCCCC3)cc2)n1`, -3.2%; as for `O=C(/C=C/c1ccco1)N1CCCC1c1csc(Nc2ccccn2)n1` (configuration not stated), -0.045%.
For the compound `CC(=O)N1CCCC1c1cccc(Nc2nc(C)cs2)n1` (configuration not stated), the relative growth recovery was -0.2%.
As for `CC(=O)N1CCC(c2cccc(Nc3nc(C)cs3)n2)CC1`, the figure is 1.95%; as for `Cc1cnc(Nc2cccc(C3CN(C(=O)Cn4nnc5ccccc54)CCO3)n2)s1` (configuration not stated), -7.92%.
As for `Cc1csc(Nc2cccc(C3CCN(C(=O)CN)CC3)n2)n1`, the figure is -10.2%.
As for `Cn1c(SCC(=O)Nc2ccccn2)nc2ccccc21`, the figure is 6.13%.
Take `COc1cc(NS(=O)(=O)c2ccc(NC(=O)c3ccc(Br)cc3)cc2)nc(OC)n1`: the relative growth recovery was -0.41%.
`Cc1cnc(Nc2cccc(CC3CCN(CC(=O)N(C(C)C)C4CCCCC4)CC3)n2)s1`: the relative growth recovery was -6.62%.
With `CCOc1cccc(C(=O)Nc2ccc(S(=O)(=O)Nc3nc(C)cc(C)n3)cc2)c1`, the relative growth recovery is 2.04%.
As for `Cc1cc(C)nc(NS(=O)(=O)c2ccc(NC(=O)/C=C/c3cccs3)cc2)n1`, the relative growth recovery came to 2.12%.
Take `Cc1csc(Nc2cccc(C3CN(CC(=O)NCc4ccccn4)CCO3)n2)n1` (configuration not stated): the relative growth recovery amounted to 8.57%.
For `CCOc1ccc(C(=O)Nc2ccc(S(=O)(=O)Nc3ncccn3)cc2)cc1OCC`, the relative growth recovery is -3.79%.
For `Cc1ccc(C)c(OCCCC(=O)Nc2ccc(S(=O)(=O)Nc3ncccn3)cc2)c1`, the relative growth recovery was -1.65%.
The same measure for `O=C(CSc1nc2cc(Cl)ccc2[nH]1)Nc1ccc(Br)cn1`: -5.94%; for `Cc1ccccc1OCC(=O)Nc1ccc(S(=O)(=O)Nc2ccccn2)cc1`: -1.69%; for `NC(=O)CN1CCC(c2csc(Nc3ccc(F)cn3)n2)CC1`: 8.4%.
For the compound `CC1=NN(CCC(=O)N2CCOC(c3cccc(Nc4nc(C)c(C)s4)n3)C2)CC1` (configuration not stated), the relative growth recovery stood at 10.3%.
The same measure for `CC(=O)Nc1ccc(S(=O)(=O)Nc2ccc(S(=O)(=O)Nc3ncccn3)cc2)cc1`: 3.15%; for `O=C(CCc1c[nH]c2ccccc12)N1CCCC1c1cccc(Nc2nccs2)n1` (configuration not stated): 2.69%.
With `O=C(CO)N1CCC(c2cccc(Nc3ncc(-c4ccccc4)s3)n2)CC1`, the relative growth recovery was -18.5%.
As to `Cc1ccnc(NS(=O)(=O)c2ccc(NC(=O)C(C)(C)C)cc2)n1`, the relative growth recovery was -3.48%.
The same measure for `Cc1cc(C)nc(NS(=O)(=O)c2ccc(NC(=O)C(C)Oc3ccccc3)cc2)n1` (configuration not stated): 0.095%; for `O=C(O)CN1CCN(c2cccc3c2C(=O)N(C2CCC(=O)NC2=O)C3=O)CC1` (configuration not stated): 0.995%; for `Cc1cc(C)nc(NS(=O)(=O)c2ccc(NC(=O)CCC(=O)O)cc2)n1`: -6.62%.
Turning to `Cc1csc(Nc2cccc(C3CN(C(=O)CCC4CCCC4)CCO3)n2)n1` (configuration not stated), the relative growth recovery turned out to be 21%.
`Cc1cccc(OCC(=O)Nc2ccc(S(=O)(=O)Nc3nc(C)cc(C)n3)cc2)c1`: the relative growth recovery is -6.49%.
Turning to `Cc1cc(NS(=O)(=O)c2ccc(NC(=O)CCc3ccccc3)cc2)nc(C)n1`, the relative growth recovery was -5.83%.
Consider `O=C(c1cccc2ncccc12)N1CCOC(c2cccc(Nc3nccs3)n2)C1` (configuration not stated), for which the relative growth recovery was -7.12%.
In the case of `COc1cc(NS(=O)(=O)c2ccc(N)cc2)nc(OC)n1`, the relative growth recovery is -2.23%.
For `CCN(CC)c1ccc2cc(C(=O)Nc3ccc(S(=O)(=O)Nc4nc(C)cc(C)n4)cc3)c(=O)oc2c1`, the relative growth recovery was 11.4%.
Regarding `O=C(COc1ccccc1)Nc1ccc(S(=O)(=O)Nc2ccccn2)cc1`, the relative growth recovery was -0.54%.
On to `O=C(Nc1ccc(S(=O)(=O)Nc2ccccn2)cc1)c1ccco1`, for which the relative growth recovery was -4.95%.
As for `Cc1csc(Nc2cccc(C3CCCN3C(=O)c3n[nH]c4c3CCCCCC4)n2)n1` (configuration not stated), the relative growth recovery was -1.55%.
Take `O=C(C1CCCCN1)N1CCC(c2cccc(Nc3ncc(-c4ccccc4)s3)n2)CC1` (configuration not stated): the relative growth recovery was -3.42%.
Regarding `Cc1nc(Nc2cccc(C3CCCN3C(=O)CCCc3ccc(F)cc3)n2)sc1C` (configuration not stated), the relative growth recovery was found to be 2.51%.
Consider `O=C(Cc1ccc(F)cc1)N1CCC(c2cccc(Nc3nccs3)n2)CC1`, for which the relative growth recovery was -18.6%.
Turning to `CC(C)C(=O)Nc1ccc(S(=O)(=O)Nc2ccccn2)cc1`, the relative growth recovery was -1.96%.
Turning to `CC(=O)Nc1ccc(S(=O)(=O)Nc2nccc(C)n2)cc1`, the relative growth recovery was -0.055%.
For the compound `CCN1CC(C(=O)N2CCC(c3cccc(Nc4ncc(C)s4)n3)CC2)CC1=O` (configuration not stated), the relative growth recovery was -0.005%.
As to `Cc1ccnc(NS(=O)(=O)c2ccc(NC(=O)Cc3cccs3)cc2)n1`, the relative growth recovery turned out to be 3.77%.
`O=C(CCc1ccccc1)Nc1ccc(S(=O)(=O)Nc2ccccn2)cc1`: the relative growth recovery was -4.47%.
As to `COc1cc(NS(=O)(=O)c2ccc(NC(=S)NC(=O)/C=C/c3ccco3)cc2)nc(OC)n1`, the relative growth recovery was -0.65%.
The same measure for `Cc1cnc(Nc2cccc(C3CCN(C(=O)CCn4ncc5ccccc54)CC3)n2)s1`: -1.66%.
As to `CC(C)(C)CC(=O)Nc1ccc(S(=O)(=O)Nc2ncccn2)cc1`, the relative growth recovery is -2.79%.
The same measure for `O=C(CN1CCC(c2cccc(Nc3nccs3)n2)CC1)Nc1ccc(F)cc1`: 9.19%; for `CC(C)c1cccc(OCC(=O)Nc2ccc(S(=O)(=O)Nc3ccccn3)cc2)c1`: -4.19%; for `O=[N+]([O-])c1ccc(S(=O)(=O)Nc2ccc(S(=O)(=O)Nc3ncccn3)cc2)cc1`: -2.34%.
As for `O=C(/C=C/c1ccc(Cl)cc1)Nc1ccc(S(=O)(=O)Nc2ncccn2)cc1`, the figure is -16.4%; as for `Cc1cnc(Nc2cccc(C3CCN(C(=O)[C@H]4CCCC[C@H]4NC(=O)OC(C)(C)C)CC3)n2)s1`, 5.29%.
`Cc1cnc(Nc2cccc(C3CCN(C(=O)CC4CCCCC4)CC3)n2)s1`: the relative growth recovery was -13.5%.
As to `O=C(CS(=O)(=O)c1ccccc1)Nc1ccc(S(=O)(=O)Nc2ncccn2)cc1`, the relative growth recovery is -4.8%.
Regarding `COc1cc(NS(=O)(=O)c2ccc(Nc3nc(-c4ccccc4)cs3)cc2)nc(OC)n1`, the relative growth recovery was -16.4%.
The same measure for `Cc1nc(Nc2cccc(C3CCCN3C(=O)CN3CCc4ccccc4C3)n2)sc1C` (configuration not stated): 3.27%; for `O=C(Nc1ccc(S(=O)(=O)Nc2ncccn2)cc1)Oc1ccccc1`: 3.04%.
As for `Cc1cc(C)nc(NS(=O)(=O)c2ccc(NC(=O)c3oc4ccccc4c3C)cc2)n1`, the relative growth recovery was -2.64%.
Consider `COc1cccc(C(=O)N2CCOC(c3cccc(Nc4nc(C)c(C)s4)n3)C2)c1` (configuration not stated), for which the relative growth recovery is 10.9%.
On to `Cc1cnc(Nc2cccc(CC3CCN(C(=O)C4CCCCC4)CC3)n2)s1`, for which the relative growth recovery was 4.21%.
Take `Cc1cnc(Nc2cccc(C3CN(C(=O)CCc4ccccc4)CCO3)n2)s1` (configuration not stated): the relative growth recovery amounted to 3.24%.
